According to patent US8067379B2, “Sulfur compounds as inhibitors of hepatitis C virus NS3 serine protease” (Schering Corporation, priority 2004, dated 2011):

Target: Recombinant heterodimeric HCV NS3/NS4A protease (strain 1a) (Hepatitis C virus genotype 1a, UniProt P27958)
Assay: Spectrophotometric assay for HCV serine protease inhibitory activity (chromogenic ester substrates)
Format: biochemical
Conditions: Table 3A; cells that print a number instead of a class symbol; read-out: Ki* Range

| Structure (SMILES) | Ki |
| --- | --- |
| C=CCNC(=O)C(=O)[C@H](CCC1CC1)NC(=O)[C@@H]1[C@@H]2[C@H](CN1C(=O)[C@@H](NC(=O)NC1(C3CCCCS3(=O)=O)CCCCC1)C(C)(C)C)C2(C)C (some centres unmarked) [Compound 856] | 5 nM |

Same assay, conditions: Table 3A; class symbols; read-out: Ki* Range

| Structure (SMILES) | Ki |
| --- | --- |
| CCC[C@H](NC(=O)[C@@H]1CC2(CN1C(=O)[C@@H](NC(=O)NC1([C@H]3CCCS3(=O)=O)CCCCC1)C1(C)CCCCC1)SCCCS2)C(=O)C(=O)NC1CC1 [Compound 847] | < 75 nM |
| CCC[C@@H](NC(=O)[C@@H]1CC2(CN1C(=O)[C@@H](NC(=O)NC1([C@@H]3CCCS3(=O)=O)CCCCC1)C1(C)CCCCC1)SCCCS2)C(=O)C(=O)NC1CC1 [Compound 848] | 75 to 250 nM |
| CCC[C@@H](NC(=O)[C@@H]1CC2(CN1C(=O)[C@@H](NC(=O)NC1([C@H]3CCCS3(=O)=O)CCCCC1)C1(C)CCCCC1)SCCCS2)C(=O)C(=O)NC1CC1 [Compound 849] | 75 to 250 nM |
| C=CCNC(=O)C(=O)[C@H](CCCC)NC(=O)[C@@H]1[C@@H]2[C@H](CN1C(=O)[C@@H](NC(=O)NC1(CS(=O)(=O)C(C)(C)COC)CCCCC1)C1(C)CCCCC1)C2(C)C [Compound 850] | < 75 nM |
| C=CCNC(=O)C(=O)[C@H](CCCC)NC(=O)[C@@H]1[C@@H]2[C@H](CN1C(=O)[C@@H](NC(=O)NC1(CS(=O)(=O)C(C)(C)COCC)CCCCC1)C(C)(C)C)C2(C)C [Compound 851] | < 75 nM |
| C=CCNC(=O)C(=O)[C@H](CCC1CC1)NC(=O)[C@@H]1[C@@H]2[C@H](CN1C(=O)[C@@H](NC(=O)NC1(CS(=O)(=O)C(C)(C)CO)CCCCC1)C1(C)CCCCC1)C2(C)C [Compound 852] | < 75 nM |
| C=CCNC(=O)C(=O)[C@H](CC1CC1)NC(=O)[C@@H]1[C@@H]2[C@H](CN1C(=O)[C@@H](NC(=O)NC1(CS(=O)(=O)C(C)(C)CF)CCCCC1)C1(C)CCCCC1)C2(C)C [Compound 853] | < 75 nM |
| CC(C)(C)[C@H](NC(=O)NC1(C2CCCS2(=O)=O)CCCCC1)C(=O)N1C[C@H]2[C@@H]([C@H]1C(=O)N[C@@H](CCC1CC1)C(=O)C(=O)NC1CC1)C2(Cl)Cl (some centres unmarked) [Compound 854] | < 75 nM |
| C#CCNC(=O)C(=O)[C@H](CCC1CC1)NC(=O)[C@@H]1[C@@H]2[C@H](CN1C(=O)[C@@H](NC(=O)NC1(CS(=O)(=O)C3CCCC3)CCCCC1)C(C)(C)C)C2(C)C [Compound 855] | < 75 nM |
| C=CCNC(=O)C(=O)[C@H](CC1CC1)NC(=O)[C@@H]1[C@@H]2[C@H](CN1C(=O)[C@@H](NC(=O)NC1([C@@H]3CC(C)(C)CCS3(=O)=O)CCCCC1)C(C)(C)C)C2(C)C [Compound 857] | < 75 nM |
| C=CCNC(=O)C(=O)[C@H](CCCC)NC(=O)[C@@H]1[C@@H]2[C@H](CN1C(=O)[C@@H](NC(=O)NC1([C@@H]3CC(C)(C)CCS3(=O)=O)CCCCC1)C(C)(C)C)C2(C)C [Compound 858] | < 75 nM |
| CCCC[C@H](NC(=O)[C@@H]1[C@@H]2[C@H](CN1C(=O)[C@@H](NC(=O)NC1([C@@H]3CC(C)(C)CCS3(=O)=O)CCCCC1)C(C)(C)C)C2(C)C)C(=O)C(=O)NC1CC1 [Compound 859] | < 75 nM |
| CC1(C)CCS(=O)(=O)[C@H](C2(NC(=O)N[C@H](C(=O)N3C[C@H]4[C@@H]([C@H]3C(=O)N[C@@H](CCC3CC3)C(=O)C(=O)NC3CC3)C4(C)C)C(C)(C)C)CCCCC2)C1 [Compound 860] | < 75 nM |
| C#CCNC(=O)C(=O)[C@H](CCC1CC1)NC(=O)[C@@H]1[C@@H]2[C@H](CN1C(=O)[C@@H](NC(=O)NC1(CS(=O)(=O)C3CCCCC3)CCCCC1)C(C)(C)C)C2(C)C [Compound 864] | < 75 nM |
| C=CCNC(=O)C(=O)[C@H](CCCC)NC(=O)[C@@H]1[C@@H]2[C@H](CN1C(=O)[C@@H](NC(=O)NC1(CS(=O)(=O)C(C)(C)C)CCCCC1)C1CCCCC1)C2(C)C [Compound 865] | < 75 nM |
| CCCC[C@H](NC(=O)[C@@H]1[C@@H]2[C@H](CN1C(=O)[C@@H](NC(=O)NC1(CS(=O)(=O)C(C)(C)C)CCCCC1)C1(C)CCCCC1)C2(C)C)C(=O)C(=O)NC1CC1 [Compound 866] | < 75 nM |
| C=CCNC(=O)C(=O)C(CCC1CC1)NC(=O)[C@@H]1[C@@H]2[C@H](CN1C(=O)[C@@H](NC(=O)NC1(CS(=O)(=O)C3(CO)CCCCC3)CCCCC1)C(C)(C)C)C2(C)C (some centres unmarked) [Compound 867] | < 75 nM |
| C=CCNC(=O)C(=O)[C@H](CC1CC1)NC(=O)[C@@H]1[C@@H]2[C@H](CN1C(=O)[C@@H](NC(=O)NC1([C@@H]3CCS3(=O)=O)CCCCC1)C(C)(C)C)C2(C)C [Compound 868] | < 75 nM |
| CCC[C@H](NC(=O)[C@@H]1[C@@H]2[C@H](CN1C(=O)[C@@H](NC(=O)NC1([C@@H]3CCS3(=O)=O)CCCCC1)C(C)(C)C)C2(C)C)C(=O)C(=O)NC1CC1 [Compound 869] | < 75 nM |
| C=CCNC(=O)C(=O)[C@H](CCC1CC1)NC(=O)[C@@H]1[C@@H]2[C@H](CN1C(=O)[C@@H](NC(=O)NC1(C3CCCCS3(=O)=O)CCCCC1)C(C)(C)C)C2(C)C (some centres unmarked) [Compound 870] | < 75 nM |
| C=CCNC(=O)C(=O)[C@H](CCC1CC1)NC(=O)[C@@H]1[C@@H]2[C@H](CN1C(=O)[C@@H](NC(=O)NC1([C@H]3CCCS3(=O)=O)CCCCC1)C1(C)CCCCC1)C2(C)C [Compound 871] | < 75 nM |
| C=CCNC(=O)C(=O)[C@H](CCC1CC1)NC(=O)[C@@H]1[C@@H]2[C@H](CN1C(=O)[C@@H](NC(=O)NC1([C@@H]3CCCS3(=O)=O)CCCCC1)C1(C)CCCCC1)C2(C)C [Compound 872] | < 75 nM |

| Structure (SMILES) | Ki |
| --- | --- |
| C#CCNC(=O)C(=O)[C@H](CCC1CC1)NC(=O)[C@@H]1[C@@H]2[C@H](CN1C(=O)[C@@H](NC(=O)NC1(CS(=O)(=O)CCC(C)C)CCCCC1)C(C)(C)C)C2(C)C [Compound 873] | < 75 nM |
| C=CCNC(=O)C(=O)[C@H](CCC1CC1)NC(=O)[C@@H]1[C@@H]2[C@H](CN1C(=O)[C@@H](NC(=O)NC1(CS(=O)(=O)CCC(C)C)CCCCC1)C(C)(C)C)C2(C)C [Compound 874] | < 75 nM |
| C=CCNC(=O)C(=O)[C@H](CCC)NC(=O)[C@@H]1[C@@H]2[C@H](CN1C(=O)[C@@H](NC(=O)NC1(C3COCCS3(=O)=O)CCCCC1)C1CCCCC1)C2(C)C (some centres unmarked) [Compound 875] | < 75 nM |
| CC1([C@H](NC(=O)NC2(CS(=O)(=O)C(C)(C)CF)CCCCC2)C(=O)N2C[C@H]3[C@@H]([C@H]2C(=O)N[C@@H](CCC2CC2)C(=O)C(=O)NC2CC2)C3(C)C)CCCCC1 [Compound 876] | < 75 nM |
| C=CCNC(=O)C(=O)[C@H](CCC1CC1)NC(=O)[C@@H]1[C@@H]2[C@H](CN1C(=O)[C@@H](NC(=O)NC1(CS(=O)(=O)C(C)(C)CF)CCCCC1)C1(C)CCCCC1)C2(C)C [Compound 877] | < 75 nM |
| C=CCNC(=O)C(=O)[C@H](CCCC)NC(=O)[C@@H]1[C@@H]2[C@H](CN1C(=O)[C@@H](NC(=O)NC1(CS(=O)(=O)C(C)(C)CF)CCCCC1)C1(C)CCCCC1)C2(C)C [Compound 878] | < 75 nM |
| CCCC[C@H](NC(=O)[C@@H]1[C@@H]2[C@H](CN1C(=O)[C@@H](NC(=O)NC1(CS(=O)(=O)C(C)(C)CF)CCCCC1)C1(C)CCCCC1)C2(C)C)C(=O)C(=O)NC1CC1 [Compound 879] | < 75 nM |
| CCC[C@H](NC(=O)[C@@H]1[C@@H]2[C@H](CN1C(=O)[C@@H](NC(=O)NC1([C@H]3CCCS3(=O)=O)CCCCC1)C1(C)CCCCC1)C2(C)C)C(=O)C(=O)NC1CC1 [Compound 880] | < 75 nM |
| CCC[C@H](NC(=O)[C@@H]1[C@@H]2[C@H](CN1C(=O)[C@@H](NC(=O)NC1([C@@H]3CCCS3(=O)=O)CCCCC1)C1(C)CCCCC1)C2(C)C)C(=O)C(=O)NC1CC1 [Compound 881] | < 75 nM |
| CC(C)(C)[C@H](NC(=O)NC1(CS(=O)(=O)C2(C)CCOCC2)CCCCC1)C(=O)N1C[C@H]2[C@@H]([C@H]1C(=O)N[C@@H](CCC1CC1)C(=O)C(=O)NC1CC1)C2(C)C [Compound 882] | < 75 nM |
| C=CCNC(=O)C(=O)[C@@H](CCC1CC1)NC(=O)[C@@H]1[C@@H]2[C@H](CN1C(=O)[C@@H](NC(=O)NC1(CS(=O)(=O)C(C)(C)C)CCCCC1)C1(C)CCCCC1)C2(C)C [Compound 883-a] | 75 to 250 nM |
| C=CCNC(=O)C(=O)[C@H](CCC1CC1)NC(=O)[C@@H]1[C@@H]2[C@H](CN1C(=O)[C@@H](NC(=O)NC1(CS(=O)(=O)C3(C)CCOCC3)CCCCC1)C(C)(C)C)C2(C)C [Compound 883-ab] | < 75 nM |
| C=CCNC(=O)C(=O)[C@H](CC1CC1)NC(=O)[C@@H]1[C@@H]2[C@H](CN1C(=O)[C@@H](NC(=O)NC1([C@H]3CCCS3(=O)=O)CCCCC1)C1(C)CCCCC1)C2(C)C [Compound 883-ad] | < 75 nM |
| C=CCNC(=O)C(=O)[C@H](CC1CC1)NC(=O)[C@@H]1[C@@H]2[C@H](CN1C(=O)[C@@H](NC(=O)NC1([C@@H]3CCCS3(=O)=O)CCCCC1)C1(C)CCCCC1)C2(C)C [Compound 883-ae] | < 75 nM |
| CCCNC(=O)C(=O)[C@H](CCC)NC(=O)[C@@H]1[C@@H]2[C@H](CN1C(=O)[C@@H](NC(=O)NC1([C@H]3CCCS3(=O)=O)CCCCC1)C1(C)CCCCC1)C2(C)C [Compound 883-ah] | < 75 nM |
| CCCNC(=O)C(=O)[C@H](CCC)NC(=O)[C@@H]1[C@@H]2[C@H](CN1C(=O)[C@@H](NC(=O)NC1([C@@H]3CCCS3(=O)=O)CCCCC1)C1(C)CCCCC1)C2(C)C [Compound 883-ai] | < 75 nM |
| C=CCNC(=O)C(=O)[C@H](CC1CC1)NC(=O)[C@@H]1[C@@H]2[C@H](CN1C(=O)[C@@H](NC(=O)NC1([C@H]3CCCS3(=O)=O)CCCCC1)C1CCCCC1)C2(C)C [Compound 883-al] | < 75 nM |
| CC(C)(C)[C@H](NC(=O)NC1(CS(=O)(=O)C(C)(C)C)CCCCC1)C(=O)N1C[C@H]2[C@@H]([C@H]1C(=O)N[C@@H](CCC1CC1)C(=O)C(=O)NCC1CC1)C2(C)C [Compound 883-am] | < 75 nM |
| CCCC[C@@H](NC(=O)[C@@H]1[C@@H]2[C@H](CN1C(=O)[C@@H](NC(=O)NC1(CS(=O)(=O)C(C)(C)C)CCCCC1)C(C)(C)C)C2(C)C)C(=O)C(=O)NCC [Compound 883-an] | > 250 nM |
| CCCC[C@H](NC(=O)[C@@H]1[C@@H]2[C@H](CN1C(=O)[C@@H](NC(=O)NC1(CS(=O)(=O)C(C)(C)C)CCCCC1)C(C)(C)C)C2(C)C)C(=O)C(=O)NCC [Compound 883-ao] | < 75 nM |
| CCCC[C@@H](NC(=O)[C@@H]1[C@@H]2[C@H](CN1C(=O)[C@@H](NC(=O)NC1(CS(=O)(=O)C(C)(C)C)CCCCC1)C1(C)CCCCC1)C2(C)C)C(=O)C(=O)NCC [Compound 883-ap] | 75 to 250 nM |
